Source: PubChem BioAssay AID485364 (National Center for Advancing Translational Sciences (NCATS), 2010)
The campaign covered roughly 360,000 compounds. About 11,000 (3.1%) were called active. This list was built around the results that the source calls inconclusive (neither active nor inactive); the mix of calls is not that of the screen. Calls come from the whole dose curve; as a rule, active = well fitted inhibition curve with a large enough effect; inconclusive = small, poorly fitted or top-dose-only effect; inactive = no such curve, though single readings can be large or run the other way. No potency is given beside an inconclusive call; the fits are too rough. More than one record can exist for a structure, and the calls need not agree.

molecular target: Schistosoma mansoni thioredoxin glutathione reductase (TGR) (UniProt Q962Y6); experiment: qHTS Assay for the Inhibitors of Schistosoma Mansoni Peroxiredoxins; settings: purified TGR, DTNB reduction, TNB absorbance 405 nm; activity change, negative = inhibition: at 114 µM (top of the series) unless noted; note: nearly all actives have a fitted effect of over 60% in size
Method in brief: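 Kinetic colorimetric format: TGR-catalysed, NADPH-driven DTNB reduction monitored via TNB absorbance. Enzyme dispensed at 20 nM; compound exposure 15 min at room temperature before reaction start.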
% is set by controls: 0 for no effect and ±100 for the full control effect; potency is the fitted concentration of half-maximal effect; tags give direction and shape of the fitted curve.

| SMILES | Potency | activity change, negative = inhibition |
| --- | --- | --- |
| CCc1cc(C(c2ccc(F)cc2)N2CCOCC2)c(NC(=O)c2ccccc2)s1 (centres undefined) | active: 3.98 µM | – |
| O=C(Nc1ccc(N2CCCC2)cc1)C(c1ccccc1)c1ccccc1 | inconclusive [inhibitor, partial curve] | – |
| O=C(CC1C(=O)NCCN1Cc1ccc(-c2ccccc2)cc1)NCCc1ccccn1 (centres undefined) | inconclusive [inhibitor, partial curve] | – |
| COc1ccc(OC)c(C(=O)CSc2nnc(Cc3cccs3)n2C)c1 | inconclusive [inhibitor, partial curve] | – |
| O=C(NCc1ccco1)N1c2ccccc2Sc2ccccc21 | inconclusive [inhibitor, partial curve] | – |
| CCOc1ccc(S(=O)(=O)N2CCN(c3ccc(OC)cc3)CC2)c2cccnc12 | inconclusive [inhibitor, partial curve, poor fit] | – |
| CCOc1ccc(CN2CCN(Cc3cccn3-c3cccnc3)CC2CCO)cc1 (centres undefined) | inconclusive [inhibitor, partial curve] | – |
| COc1ccc(C2=NN(C(=O)CSc3nnc(C)n3C)C(c3ccco3)C2)cc1 (centres undefined) | inconclusive [inhibitor, partial curve] | – |
| CCCOc1ccc(N)cc1N | active: 1.78 µM | – |
| COc1ccc(CN2CCCC(C(=O)c3ccccc3SC)C2)cc1O (centres undefined) | inconclusive [inhibitor, single point] | – |
| Cc1ccc(-c2nn3c(C)nnc3c3ccccc23)cc1S(=O)(=O)NCc1ccco1 | inconclusive [inhibitor, full curve, poor fit] | – |
| COCCn1c(C)cc(C(=O)COC(=O)c2ccc([N+](=O)[O-])o2)c1C | active: 35.5 µM | – |
| COc1ccc(CCN2C(=O)CN(C3CCCCCC3)C(=O)C2c2ccc(OC(C)C)c(OC)c2)cc1OC (centres undefined) | – | inactive: 5.63% |
| COC(=O)C(NC(C)=O)(Nc1nc2c(s1)CCCC2)C(F)(F)F (centres undefined) | active: 50.1 µM | – |
| COC(=O)c1ccc(C2=NOC(C)(c3sc(-c4ccccc4)nc3C)C2)cc1 (centres undefined) | inconclusive [inhibitor, partial curve] | – |
| Cc1ccc(-c2ccc(/C=N/NC(=O)CN3CCOCC3)o2)cc1[N+](=O)[O-] | inconclusive [inhibitor, partial curve] | – |
| Cc1ccc(/C=C/C(=O)NCCc2c[nH]c3ccccc23)o1 | active: 14.1 µM | – |
| O=c1cc(-c2ccccc2Cl)c2c([nH]1)CCC2 | inconclusive [inhibitor, partial curve] | – |
| Cc1ccc(/C=N/NC(=O)Cc2cccn2C)cc1 | inconclusive [inhibitor, partial curve] | – |
| COC(=O)c1cc(CN2CCN(c3ccccc3)CC2)ccc1O | – | inactive: -7.1% |
| Cc1ccc(CN2C3=NCCCN3c3ccccc32)cc1 | – | inactive: 9.61% |
| Cc1ccc(C)c(NS(=O)(=O)c2ccc(OCC(=O)NCc3ccco3)cc2)c1 | inconclusive [inhibitor, partial curve] | – |
| Cc1cc(C)n(-c2ccc(NN=C(C#N)C#N)cc2)n1 | active: 31.6 µM | – |
| O=C(C1COc2ccccc2O1)N1CCN(c2ccccc2F)CC1 (centres undefined) | – | inactive: 2.91% |
| CCOc1ccc(Br)cc1S(=O)(=O)Nc1cccc(S(=O)(=O)N(C)c2ccccc2)c1 | – | inactive: 8.11% |
| O=C(CSc1nc(-c2ccco2)cc(C(F)(F)F)n1)N1CCN(Cc2ccccc2)CC1 | inconclusive [inhibitor, partial curve] | – |
| O=C(COc1ncnc2ccccc12)NCCC1=CCCCC1 | – | inactive: 3.69% |

| SMILES | Potency | activity change, negative = inhibition |
| --- | --- | --- |
| COc1ccc(-c2cc(-c3ccco3)[nH]c(=O)c2C#N)cc1OC | active: 3.98 µM | – |
| O=C(O)/C=C/c1cn(-c2ccccc2)nc1-c1ccc(-c2ccc([N+](=O)[O-])cc2)o1 | inconclusive [inhibitor, partial curve] | – |
| Cc1ccc2[nH]c3c(c2c1)CCc1cn[nH]c1-3 | inconclusive [inhibitor, partial curve, poor fit] | – |
| c1cc2c(cc1CN1CCNCC1)OCO2 | inconclusive [inhibitor, partial curve] | – |
| CC(NC1=NCCS1)c1ccccc1 (centres undefined) | – | inactive: -0.847% |
| CC(C)N(CC(=O)Nc1ccc(Cl)cc1C(F)(F)F)C(=O)CCl | active: 17.8 µM | – |
| c1cnc(N2CCN(c3ncc4c(n3)CCNC4)CC2)nc1 | – | inactive: 20.6% |
| COc1ccc(/C=C2/C(=O)N(CC3CCCO3)C(=S)N2C)c(OC)c1 (centres undefined) | – | inactive: -9.82% |
| CC1(C)CC(=O)C=C(CN2C(=O)c3ccccc3C2=O)C1=O | – | inactive: 0.104% |
| O=C(NCC(c1cccs1)S(=O)(=O)c1cccs1)c1cccc(F)c1 (centres undefined) | active: 20 µM | – |
| C=CCOCC(O)CS(=O)(=O)Cc1ccc(Cl)cc1 (centres undefined) | – | inactive: -1.06% |
| Fc1ccccc1CSc1ncn[nH]1 | – | inactive: 1.51% |
| Cc1cc(-c2ccccc2)cc(-c2ccccc2)[n+]1C | – | inactive: -0.636% |
| COc1ccc(C)cc1COC(=O)c1[nH]c(C)c(C(C)=O)c1C | inconclusive [inhibitor, partial curve] | – |
| O=C(CSCCO)Nc1ccc(C2CCCCC2)cc1 | – | inactive: 2.43% |
| NS(=O)(=O)c1cccc(NC(=O)C2CC(=O)N(Cc3ccco3)C2)c1 (centres undefined) | active: 50.1 µM | – |
| COc1ccc(O)c(C(=O)c2cnn(S(=O)(=O)c3ccc(C)cc3)c2)c1 | active: 35.5 µM | – |
| C=C(C)CNC(=S)N/N=C/c1ccco1 | inconclusive [inhibitor, partial curve] | – |
| CCN1C(=O)[C@@H]2[C@@H](c3ccc(-c4ccc(OC)cc4)cc3)N3CCC[C@@]3(C(=O)OC)[C@@H]2C1=O | – | inactive: -28.6% |
| Cc1cc(=O)oc2cc(OCC(=O)N3CCN(C(C)c4ccccc4)CC3)c(Cl)cc12 (centres undefined) | – | inactive: -1.13% |
| C/C(=N\NC1=NCCN1)c1ccccc1 | – | inactive: 11% |
| COc1ccc2cc(-c3cc(C(=O)O)c4ccccc4n3)ccc2c1 | – | inactive: 1.9% |
| Cc1cc(C(=O)Nc2ccc(Cl)cc2)c(C)n1-c1ccccc1 | active: 50.1 µM | – |
| CCOc1ccc(CCNC(=O)CS(=O)(=O)Cc2nc(-c3ccc(OC)cc3)oc2C)cc1 | inactive | – |
| O=C1NC(=O)N(c2ccccc2)C(=O)/C1=C\c1ccccc1[N+](=O)[O-] | active: 3.55 µM | – |
| COc1ccc(Cn2c(O)c(C=NCCN3CCOCC3)c(=O)[nH]c2=O)cc1 | inconclusive [inhibitor, full curve] | – |
| Cc1ccccc1NC(=O)NC1CCCc2ccccc21 (centres undefined) | – | inactive: 1.75% |

| SMILES | Potency | activity change, negative = inhibition |
| --- | --- | --- |
| Cc1cccc(NS(=O)(=O)c2ccc3c(c2)CC(C)N3C(=O)C2CCC2)c1C (centres undefined) | – | inactive: 1.29% |
| Cc1ccc(-c2noc(-c3ccccc3C(=O)NCc3ccco3)n2)cc1 | inconclusive [inhibitor, partial curve] | – |
| CCCn1nnc(NC(=S)NC(=O)/C=C/c2ccco2)n1 | active: 7.08 µM | – |
| Cc1cccc(S(=O)(=O)N2CCn3cccc3C2C)c1 (centres undefined) | active: 44.7 µM | – |
| COCCCNC(=O)c1ccc(-c2nc(CS(=O)(=O)c3ccc(C)cc3)c(C)o2)cc1 | active: 25.1 µM | – |
| CCN(c1cccc(C)c1)S(=O)(=O)c1cc(CN2C(=O)c3cccnc3C2=O)ccc1OC | – | inactive: -10.9% |
| Cc1ccc2[nH]c(=O)c(CN(Cc3ccc4c(c3)OCO4)Cc3nnnn3C3CCCC3)cc2c1 | – | inactive: -19.1% |
| Cc1ccc(-c2nc(CS(=O)(=O)CC(=O)NC3CCC(C)CC3)c(C)o2)cc1 (centres undefined) | inconclusive [inhibitor, partial curve] | – |
| O=C(O)C1CSC(c2ccco2)N1 (centres undefined) | inconclusive [inhibitor, single point] | – |
| Cc1ccc2c(c1)C(c1ccccc1)C(=O)O2 (centres undefined) | inconclusive [inhibitor, full curve, poor fit] | – |
| Cc1cccc(-c2nc(C)c(CCNC(=O)C(=O)Nc3ccccc3C#N)s2)c1 | – | inactive: -2.14% |
| COc1ccc(-n2nnnc2C2CCN(S(=O)(=O)c3ccc(NC(C)=O)cc3)CC2)cc1 | – | inactive: 4.99% |
| COc1cc(C(=O)NC2CC3CCCC(C2)N3CC(=O)Nc2ccccc2)cc(OC)c1OC (centres undefined) | inconclusive [inhibitor, single point] | – |
| Nc1nc(-c2ccccc2)cc(N2CCCCC2)n1 | inconclusive [inhibitor, full curve, poor fit] | – |
| Cc1ccc(C(=O)N2C(=S)C(c3ccc(F)cc3)=NC23CCN(C)CC3)cc1 | inconclusive [inhibitor, partial curve] | – |
| CCc1ccc2[nH]c(=O)c(C(c3nnnn3CCOC)N3CCN(c4ccccc4)CC3)cc2c1 (centres undefined) | active: 44.7 µM | – |
| Cc1ccc(CNC(=O)c2cc3c(=O)n(Cc4ccco4)ccc3nc2C)cc1 | active: 25.1 µM | – |
| C=C1C(=O)O[C@@H]2C[C@@H](C)[C@@H]3C4OC4C(=O)[C@@]3(C)[C@@H](O)[C@H]12 (some centres undefined) | active: 39.8 µM | – |
| CC(C)CC(=O)NC(=S)Nc1ccc(N2CCOCC2)c(Cl)c1 | inconclusive [inhibitor, partial curve] | – |
| CCC(C(=O)Nc1ccc(C)c(C)c1)n1c(=O)c(C(F)(F)F)nc2ccccc21 (centres undefined) | – | inactive: 14.6% |
| N[C@@H](Cc1cc(I)c(Oc2ccc(O)c(I)c2)c(I)c1)C(=O)O | active: 50.1 µM | – |
| O=C(c1ccc(CS(=O)Cc2ccc(Cl)cc2)o1)N1CCN(c2ccccn2)CC1 (centres undefined) | inconclusive [inhibitor, partial curve] | – |
| N#CC1=C(O)C(c2ccccc2)n2c1nc(=O)c1ccccc12 (centres undefined) | inconclusive [inhibitor, partial curve, poor fit] | – |
| O=C(NCc1ccco1)C1CCN(S(=O)(=O)N2CCOCC2)CC1 | active: 50.1 µM | – |
| CCN(Cc1ccccc1)C(=O)c1cccc(S(=O)(=O)N2CCN(Cc3ccccc3)CC2)c1 | – | inactive: -0.774% |
